Measured values from the supplement of paper PMC3334620.
In all, about 33,000 sequences were measured (“E-score (-0.5 to 0.5)”: median about -0.053, highest 2% from about 0.37 on). The list shows a part of the results.

Target: Hap1 (UniProt P0CE41)
Assay: PBM E-score (8-mer binding enrichment) (E-score (-0.5 to 0.5)); higher = stronger / more preferred TF binding; most listed sequences are background and not binding sites
Settings: protein concentration: 200 nM; construct: GST-DNA-binding domain
Procedure, shortened: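 Each ungapped eight-base word and its reverse complement, pooled, received an E-score from the Universal PBM Analysis Suite. Underlying scans, normalised with masliner, recorded fluorescent anti-GST bound to GST-tagged yeast transcription factors. These were applied at about 100-200 nM to universal all-10-mer Agilent arrays double-stranded by primer extension.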

Sequence of UniProt P0CE41 (P0CE41 whole entry): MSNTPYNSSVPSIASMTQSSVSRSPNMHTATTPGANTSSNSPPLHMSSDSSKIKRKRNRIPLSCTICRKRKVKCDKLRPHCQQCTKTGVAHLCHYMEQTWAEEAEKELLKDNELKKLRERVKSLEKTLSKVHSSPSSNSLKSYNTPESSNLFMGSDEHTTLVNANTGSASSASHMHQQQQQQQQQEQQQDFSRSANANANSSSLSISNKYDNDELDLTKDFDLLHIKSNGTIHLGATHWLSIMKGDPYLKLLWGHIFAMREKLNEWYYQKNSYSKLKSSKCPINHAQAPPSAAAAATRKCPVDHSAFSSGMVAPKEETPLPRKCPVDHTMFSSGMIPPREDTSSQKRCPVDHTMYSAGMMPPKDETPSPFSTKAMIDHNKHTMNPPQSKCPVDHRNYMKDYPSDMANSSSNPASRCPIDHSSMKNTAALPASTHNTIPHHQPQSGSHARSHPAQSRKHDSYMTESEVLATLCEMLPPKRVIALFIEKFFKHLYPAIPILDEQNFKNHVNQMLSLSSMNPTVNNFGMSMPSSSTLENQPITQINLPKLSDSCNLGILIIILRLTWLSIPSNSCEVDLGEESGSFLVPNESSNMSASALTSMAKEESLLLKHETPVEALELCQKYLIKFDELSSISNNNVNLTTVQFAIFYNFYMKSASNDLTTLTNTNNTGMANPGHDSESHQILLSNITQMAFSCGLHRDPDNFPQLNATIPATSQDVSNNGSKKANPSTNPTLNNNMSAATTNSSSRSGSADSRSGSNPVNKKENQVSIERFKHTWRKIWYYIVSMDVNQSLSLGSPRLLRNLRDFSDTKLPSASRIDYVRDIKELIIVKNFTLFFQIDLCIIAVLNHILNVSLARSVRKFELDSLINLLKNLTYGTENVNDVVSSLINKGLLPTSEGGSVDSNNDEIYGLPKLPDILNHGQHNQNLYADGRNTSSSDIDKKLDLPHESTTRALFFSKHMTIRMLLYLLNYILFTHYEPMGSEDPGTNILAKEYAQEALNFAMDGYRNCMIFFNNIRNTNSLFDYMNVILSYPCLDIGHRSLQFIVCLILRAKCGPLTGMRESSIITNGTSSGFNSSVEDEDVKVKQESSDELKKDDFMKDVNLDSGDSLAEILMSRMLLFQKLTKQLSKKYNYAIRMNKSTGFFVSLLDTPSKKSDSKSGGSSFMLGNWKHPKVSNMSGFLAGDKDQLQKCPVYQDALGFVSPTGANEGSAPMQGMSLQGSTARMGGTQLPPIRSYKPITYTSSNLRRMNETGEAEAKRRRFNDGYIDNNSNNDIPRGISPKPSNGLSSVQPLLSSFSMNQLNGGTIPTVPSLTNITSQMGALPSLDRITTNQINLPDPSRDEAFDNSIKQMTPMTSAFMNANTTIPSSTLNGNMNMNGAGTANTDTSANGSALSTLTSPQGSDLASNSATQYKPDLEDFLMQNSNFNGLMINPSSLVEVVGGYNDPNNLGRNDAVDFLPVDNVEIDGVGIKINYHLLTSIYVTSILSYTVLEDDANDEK

Going from CAACTGTG to ATACTCAA, the “PBM E-score” value rises from -0.173 to 0.00135.

Going from CATACGAC to CTCCAACA, the “PBM E-score” value rises from -0.15 to -0.111.

First: CATTAGGC
Second: AGTTCAAC
The “PBM E-score” value of the first is lower: -0.143 for the first, -0.0128 for the second.

Compared with CATGCCGA, AGACTAAC is lower in “PBM E-score” value: 0.17 for the first, -0.0545 for the second.

First: ACCGTAAC
Second: AACCAGAT
The “PBM E-score” value of the first is higher: 0.138 for the first, -0.0104 for the second.

Going from GGGAGTTA to CGGACCAA, the “PBM E-score” value rises from 0.247 to 0.383.

First: CGGGTCTC
Second: TGCTCGAA
The “PBM E-score” value of the first is higher: 0.192 for the first, -0.127 for the second.

Compared with CCCTAAAC, ATAGAATG is lower in “PBM E-score” value: -0.0256 for the first, -0.105 for the second.

Compared with CGCGAGCA, GTTTCTGA is higher in “PBM E-score” value: -0.126 for the first, 0.0004 for the second.

Compared with GGCCTGCA, ATACTTAG is lower in “PBM E-score” value: -0.0802 for the first, -0.123 for the second.

Going from AGTTTTCG to GGGGCAAC, the “PBM E-score” value falls from 0.141 to -0.0958.

Compared with CCCTCATA, CTAAACGC is higher in “PBM E-score” value: -0.267 for the first, 0.109 for the second.

Going from GCATGGGC to TACCACCA, the “PBM E-score” value rises from -0.157 to 0.0011.

First: ATTTCTGA
Second: AAGCCCCC
The “PBM E-score” value of the first is lower: -0.255 for the first, 0.104 for the second.

First: TATAGATA
Second: CTGGGTCA
The “PBM E-score” value of the first is lower: -0.258 for the first, -0.057 for the second.

Compared with ATTGTAAA, ATTCAACG is higher in “PBM E-score” value: -0.0306 for the first, 0.0652 for the second.

First: ACCTATAC
Second: ATGGACTC
The “PBM E-score” value of the first is lower: -0.202 for the first, -0.019 for the second.

First: TCACGCAA
Second: CGTCACTC
The “PBM E-score” value of the first is lower: -0.0399 for the first, 0.00776 for the second.

Going from AGGGGCTA to CGTGCCAA, the “PBM E-score” value rises from -0.233 to -0.144.

First: AGTGGTGG
Second: GAGCTGTA
The “PBM E-score” value of the first is lower: -0.273 for the first, -0.189 for the second.

First: CCCTGTTA
Second: GGCGGCAC
The “PBM E-score” value of the first is lower: -0.123 for the first, 0.202 for the second.

First: CATGTGCG
Second: AAATAAAT
The “PBM E-score” value of the first is lower: -0.131 for the first, 0.159 for the second.

Going from CTGCCGAC to ACATAAAA, the “PBM E-score” value falls from 0.133 to -0.188.

Compared with AAATCAGA, CAACCTGG is lower in “PBM E-score” value: -0.113 for the first, -0.172 for the second.

Compared with CCCCGGAA, AACAGTGG is lower in “PBM E-score” value: 0.272 for the first, -0.019 for the second.

Going from ATCTTTCG to CCTACCCC, the “PBM E-score” value rises from -0.0668 to 0.0697.

First: GATAGTAC
Second: ACCAATCA
The “PBM E-score” value of the first is higher: 0.0622 for the first, -0.0506 for the second.

First: GTCTTTCA
Second: ACAGACAT
The “PBM E-score” value of the first is higher: -0.14 for the first, -0.156 for the second.

First: ACGTTTGC
Second: TACCATGA
The “PBM E-score” value of the first is higher: -0.137 for the first, -0.347 for the second.

Compared with AGGGCCCG, CTGATAAG is lower in “PBM E-score” value: 0.106 for the first, -0.151 for the second.

Going from CCGTCATA to CAATTAGC, the “PBM E-score” value falls from 0.189 to -0.0151.

Going from ACACTTTA to ACGTCGAT, the “PBM E-score” value falls from -0.0855 to -0.111.

Compared with ACTAACTC, ACTTGTCT is lower in “PBM E-score” value: 0.018 for the first, -0.227 for the second.

First: ATTCTCCA
Second: AGACGGGA
The “PBM E-score” value of the first is lower: -0.157 for the first, -0.134 for the second.

First: CCCCCACA
Second: CCACGCCC
The “PBM E-score” value of the first is lower: -0.227 for the first, 0.0955 for the second.

Going from AAGCGGAC to AACCGCTT, the “PBM E-score” value falls from 0.265 to -0.0269.

First: ATTCGCTG
Second: ATCGGGAG
The “PBM E-score” value of the first is lower: -0.0586 for the first, 0.192 for the second.

Going from GACCGCGC to CGAGAAAC, the “PBM E-score” value falls from 0.196 to 0.187.

Compared with ACGGTGAC, ATCGACAC is lower in “PBM E-score” value: -0.112 for the first, -0.179 for the second.

First: CTTCACAA
Second: ACAATGAG
The “PBM E-score” value of the first is lower: -0.207 for the first, -0.167 for the second.

First: CCACGCTC
Second: GCGAAGTA
The “PBM E-score” value of the first is lower: -0.156 for the first, 0.174 for the second.

Compared with ACCGGGGC, CACGGTGG is lower in “PBM E-score” value: 0.291 for the first, -0.0434 for the second.

Compared with CCTCAAAG, AGGGTCGA is higher in “PBM E-score” value: -0.204 for the first, 0.0991 for the second.
